Assay results: PubChem BioAssay AID1461 (National Center for Advancing Translational Sciences (NCATS), 2008)
Out of some 220,000 compounds screened, about 2,300 (1%) were called active. This list was built around the results that the source calls inconclusive (neither active nor inactive); the mix of calls is not that of the screen. The call rests on the fitted dose curve; in most records, active means well fitted inhibition curve with a large enough effect; inconclusive means small, poorly fitted or top-dose-only effect, or effect the other way; inactive means no such curve, though single readings can be large or run the other way. No potency is given beside an inconclusive call; the fits are too rough.

Target: Neuropeptide S receptor (Homo sapiens) (UniProt Q6W5P4)
Chain of UniProt Q6W5P4 (Q6W5P4 whole entry, looked up): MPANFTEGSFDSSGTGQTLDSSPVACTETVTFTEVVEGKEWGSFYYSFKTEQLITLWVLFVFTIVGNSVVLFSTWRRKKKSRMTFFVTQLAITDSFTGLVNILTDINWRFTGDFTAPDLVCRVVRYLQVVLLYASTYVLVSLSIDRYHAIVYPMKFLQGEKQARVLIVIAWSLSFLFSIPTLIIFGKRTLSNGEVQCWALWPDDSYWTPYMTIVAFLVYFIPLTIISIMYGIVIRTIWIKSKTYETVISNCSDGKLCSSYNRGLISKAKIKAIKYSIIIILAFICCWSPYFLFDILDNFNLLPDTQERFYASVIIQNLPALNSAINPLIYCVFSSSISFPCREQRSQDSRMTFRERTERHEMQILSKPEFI
Experiment: qHTS Assay for Antagonists of the Neuropeptide S Receptor: cAMP Signal Transduction; further: nearly all actives have a fitted effect of over 50% in size
Settings: CHO-NPSR cells, cAMP TR-FRET, antagonist mode; series mostly up to 38.3 µM
Potency means the concentration at half of the fitted maximal effect; tags describe the fitted curve by direction and shape.

| Compound | Potency |
| --- | --- |
| CC(C)COc1ccc(C2(C#N)CC[N+](C)(C)CC2)cc1 | inconclusive [inhibitor, single point] |
| Clc1ccc2c(c1)C(c1ccccc1Cl)=NCc1nnc(N3CCN(CCOc4ccccc4)CC3)n1-2 | inconclusive [inhibitor, single point] |
| C[C@H]1COC2=C1C(=O)C(=O)c1c2ccc2c1CCCC2(C)C | inconclusive [activator, single point] |
| NC(=S)c1cn(C2OC(CO)C(O)C2O)c2ncnc(N)c12 (centres undefined) | inactive |
| Cc1nc2cc(C(F)(F)F)ccc2n1C1CCN(Cc2nnnn2Cc2cccs2)CC1 | inconclusive [inhibitor, single point] |
| C/C(O)=C(\C#N)C(=O)Nc1cc(Br)ccc1Br | inconclusive [inhibitor, single point] |
| O=C(Nc1cccc(OC(=O)N2CCOCC2)c1)N1CCOCC1 | inactive |
| C/C=C/CC1(CC)C(=O)NC(=S)NC1=O | inactive |
| O=C(Nc1ccc(F)cc1F)c1cccnc1Oc1cccc(C(F)(F)F)c1 | inconclusive [inhibitor, partial curve] |
| C=CCN1CC[C@@]2(C)c3cc(O)ccc3CC1[C@@H]2C | inconclusive [inhibitor, partial curve] |
| S=C1CN=C(c2ccccc2)c2cc(Cl)ccc2N1 | active: 12.6 µM |
| CC(C)C(=O)Nc1ccc(C(=O)NCc2cccnc2)cc1 | inconclusive [inhibitor, single point] |
| C[C@]12CCC(=O)C=C1CC[C@@H]1[C@@H]2CC[C@]2(C)C(=O)CC[C@@H]12 | inconclusive [inhibitor, full curve, poor fit] |
| COc1ccc(N2C(=O)/C(=C/c3cc(C)n(-c4ccc(C)cn4)c3C)C(=O)NC2=S)c(OC)c1 | inactive |
| O=c1oc2ccccc2c(O)c1C(c1ccccn1)c1c(O)c2ccccc2oc1=O | inconclusive [activator, partial curve] |
| O=C1NC(=O)N(CCC2=CCCCC2)C(=O)/C1=C\c1cccs1 | inconclusive [inhibitor, single point] |
| CCCCN1C(=O)NC(=O)/C(=C/c2cnc(SC)nc2)C1=O | inconclusive [inhibitor, partial curve] |
| C/C=C(\C)C(=O)OC1C(C)=C2C(C1OC(=O)CCCCC)C(C)(OC(C)=O)CC(OC(=O)CCC)C1(O)C2OC(=O)C1(C)O (centres undefined) | active: 3.98 µM |
| CCC1CN(C)CCC1(OC(C)=O)c1ccccc1 (centres undefined) | inconclusive [activator, full curve, poor fit] |
| CC(C)OCCCNC(=O)c1c(N)n(Cc2cccs2)c2nc3ccccc3nc12 | active: 10 µM |
| CC12CCC3C(CC=C4CC(O)CCC43C)C1C/C(=C\c1ccccc1F)C2=O (centres undefined) | inconclusive [inhibitor, partial curve] |
| COc1cc([C@@H]2c3cc4c(cc3[C@H](O)C3COC(=O)[C@@H]32)OCO4)cc(OC)c1OC (some centres undefined) | inconclusive [activator, full curve] |
| CCCCN1C(=O)NC(=O)C2(Cc3cc(C)ccc3N(C)C2)C1=O (centres undefined) | inactive |

| Compound | Potency |
| --- | --- |
| COc1ccc(-c2nc3ccccc3c(=O)o2)cc1 | inactive |
| COC(=O)C1C2c3ccccc3OC1(C)N=c1s/c(=C/c3cn(C)nc3C)c(=O)n12 (centres undefined) | inconclusive [inhibitor, single point] |
| COC(=O)C(C)Oc1cc(C)cc2oc(=O)c3c(c12)CCCC3 (centres undefined) | inconclusive [inhibitor, partial curve] |
| O=C1NC(=O)N(CCc2ccc(F)cc2)C(=O)/C1=C/C=C/c1ccccc1 | inconclusive [inhibitor, single point] |
| N#CC(C#N)=NNc1ccc([N+](=O)[O-])cc1 | active: 3.98 µM |
| O=C1NC(=O)N(Cc2ccc(F)cc2)C(=O)/C1=C\C=C\c1ccco1 | inconclusive [inhibitor, single point] |
| CC(C)C[C@H]1C(=O)N2CCC[C@H]2[C@]2(O)O[C@](NC(=O)[C@@H]3C=C4c5cccc6[nH]c(Br)c(c56)CC4N(C)C3)(C(C)C)C(=O)N12 (some centres undefined) | active: 1.58 µM |
| Cc1cc2c(C(C)C)c(O)c(O)c(C=O)c2c(O)c1-c1c(C)cc2c(C(C)C)c(O)c(O)c(C=O)c2c1O | inconclusive [inhibitor, single point] |
| CCC1(c2ccccc2)C(=O)N(C)C(=O)N(C)C1=O | inactive |
| Cc1ccc(-c2nn(C)c(=O)c3ccccc23)cc1CNC(=O)/C=C/c1ccccc1 | inconclusive [inhibitor, partial curve] |
| CCN1CCN(Cc2cc(C(C)(C)C)c(O)c(C(C)(C)C)c2)CC1 | inactive |
| Cc1cc(/C=C2\C(=O)NC(=O)N(Cc3ccccc3)C2=O)c(C)n1C1CC1 | inactive |
| CC(C)c1ccc(N2C(=O)NC(=O)/C(=C/C=C/c3ccco3)C2=O)cc1 | active: 6.31 µM |
| COc1ccc(C2SCC(=O)Nc3c2c(C)nn3-c2ccccc2)cc1OC (centres undefined) | inconclusive [inhibitor, single point] |
| CCCCCCn1c(O)c(C=Nc2ccccc2N2CCOCC2)c(=O)[nH]c1=S | inconclusive [activator, partial curve] |
| COC(=O)[C@]1(C)C[C@H]1[C@H](NP(=O)(c1ccccc1)c1ccccc1)c1ccccc1 | active: 12.6 µM |
| CCn1c(C(=O)N2CCC(C(=O)N3CCC4(CC3)OCCO4)CC2)cc2sccc21 | inconclusive [inhibitor, partial curve, poor fit] |
| CCN(CC)c1ccc(CNc2nc3ccccc3n2C)cc1 | inconclusive [inhibitor, single point] |
| Cc1onc(-c2c(Cl)cccc2Cl)c1C(=O)Nc1ccc2c(C(F)(F)F)cc(=O)oc2c1 | inconclusive [activator, partial curve] |
| O=P(Oc1ccccc1)(Oc1ccccc1)N1CCN(c2ccc(F)cc2)CC1 | inconclusive [inhibitor, single point] |
| O=C(CN1C(=O)CN=C(c2ccccc2Cl)c2cc(Cl)ccc21)NCc1ccco1 | inactive |
| O=S1(=O)CC2(N3CCOCC3)CCCCC21 (centres undefined) | inactive |
| COc1ccc(CN2C(=O)NC(=O)/C(=C/c3ccoc3)C2=O)cc1 | inactive |

| Compound | Potency |
| --- | --- |
| CCc1c(C(=O)OC)ncc2[nH]c3cc(OC)c(OC)cc3c12 | inactive |
| O=C1NC(=O)C(=Cc2ccc(SC3CCCCC3)o2)C(=O)N1 | inconclusive [inhibitor, single point] |
| FC(F)(F)c1ccc2c(c1)N(CCCN1CCN(CCCl)CC1)c1ccccc1S2 | active: 7.94 µM |
| CC1(C)CN=C(NCc2ccccc2Cl)S1 | inactive |
| CN1CCN(c2ccc(C=O)cc2)CC1 | inactive |
| CCCSc1ccc2nc(NC(=O)OC)[nH]c2c1 | inconclusive [inhibitor, single point] |
| CCOP(=O)(OCC)c1cccc(OP(=O)(c2cccc([N+](=O)[O-])c2)c2cccc([N+](=O)[O-])c2)c1 | inconclusive [activator, single point] |
| COc1ccc(/C=C/C(=O)c2c(O)n(CCC3=CCCCC3)c(=O)[nH]c2=O)cc1 | inconclusive [inhibitor, single point] |
| O=[N+]([O-])/C=C/c1c(OCc2ccccc2)ccc2ccccc12 | active: 6.31 µM |
| Nc1c(C(=O)NCc2ccco2)c2nc3ccccc3nc2n1Cc1ccccc1 | inconclusive [inhibitor, single point] |
| CCN(CC)C(=O)c1ccc2c(c1)C1C(Cl)C(Sc3ccccc3[N+](=O)[O-])CC1C(C(=O)O)N2 (centres undefined) | inconclusive [activator, single point] |
| CCOC(=O)C(O)(c1ccc(NC(=S)NC(=O)c2ccc(Cl)cc2Cl)c(C)c1)C(F)(F)F (centres undefined) | inactive |
| CC(=O)Nc1ccc(OC(=O)N(C)C)cc1 | inconclusive [inhibitor, partial curve] |
| O=P(Nc1ccccc1Cl)(c1ccccc1)c1nc2c(s1)CCCC2 (centres undefined) | inconclusive [inhibitor, partial curve, poor fit] |
| N#CC(C#N)=Cc1ccc([N+](=O)[O-])c(O)c1 | inactive |
| O=S1(=O)N(CCN2CC=C(c3c[nH]c4cc(F)ccc34)CC2)c2cccc3c2N1CCC3 | inconclusive [inhibitor, single point] |
| O=c1cccc2n1CC1CC2CN(Cc2cccc(Cl)c2Cl)C1 (centres undefined) | inconclusive [activator, partial curve] |
| Cc1ccc(S(=O)(=O)NCC2CCC(C(=O)NCCCN3CCOCC3)CC2)cc1 (centres undefined) | inconclusive [inhibitor, single point] |
| CC(C)CNC(=O)c1c(N)n(Cc2ccco2)c2nc3ccccc3nc12 | active: 10 µM |
| O=[N+]([O-])c1cccc(CN2CCN(Cc3ccc(Br)cc3)CC2)c1 | inconclusive [inhibitor, single point] |
| CCOC(=O)c1c(-n2c(C)cc(C=C3C(=O)NC(=O)NC3=O)c2C)sc2c1CCCC2 | inconclusive [inhibitor, partial curve] |
| CC(C)Sc1nnc([C@@H](N)Cc2c[nH]c3ccccc23)o1 | inconclusive [inhibitor, single point] |
| COc1cc(C)c(CN2CCN(c3ccccc3)CC2)cc1C | inactive |
